Results published in PubChem BioAssay AID1645882 (National Center for Advancing Translational Sciences (NCATS), 2021).
About 120 (0.75%) of roughly 16,000 compounds were called active. About 4% were inconclusive and are not listed. Calls come from the whole dose curve; as a rule, active = well fitted inhibition curve with a large enough effect; inconclusive = small, poorly fitted or top-dose-only effect; inactive = no such curve, though single readings can be large or run the other way. The list shows a part of the results.

molecular target: Rap guanine nucleotide exchange factor 3 (Homo sapiens) (UniProt O95398); assay: Validation qHTS for antagonist of cAMP-regulated guanine nucleotide exchange factor 3 (EPAC1); settings: EPAC1 Rap1B-BODIPY-GDP exchange, fluorescence; series mostly up to 150 µM; activity change, negative = inhibition: at the top concentration;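 note: plate controls were DMSO for no effect and ATA control for full effect; nearly all actives have a fitted effect of over 75% in size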
Chain of UniProt O95398 (O95398 whole entry, looked up): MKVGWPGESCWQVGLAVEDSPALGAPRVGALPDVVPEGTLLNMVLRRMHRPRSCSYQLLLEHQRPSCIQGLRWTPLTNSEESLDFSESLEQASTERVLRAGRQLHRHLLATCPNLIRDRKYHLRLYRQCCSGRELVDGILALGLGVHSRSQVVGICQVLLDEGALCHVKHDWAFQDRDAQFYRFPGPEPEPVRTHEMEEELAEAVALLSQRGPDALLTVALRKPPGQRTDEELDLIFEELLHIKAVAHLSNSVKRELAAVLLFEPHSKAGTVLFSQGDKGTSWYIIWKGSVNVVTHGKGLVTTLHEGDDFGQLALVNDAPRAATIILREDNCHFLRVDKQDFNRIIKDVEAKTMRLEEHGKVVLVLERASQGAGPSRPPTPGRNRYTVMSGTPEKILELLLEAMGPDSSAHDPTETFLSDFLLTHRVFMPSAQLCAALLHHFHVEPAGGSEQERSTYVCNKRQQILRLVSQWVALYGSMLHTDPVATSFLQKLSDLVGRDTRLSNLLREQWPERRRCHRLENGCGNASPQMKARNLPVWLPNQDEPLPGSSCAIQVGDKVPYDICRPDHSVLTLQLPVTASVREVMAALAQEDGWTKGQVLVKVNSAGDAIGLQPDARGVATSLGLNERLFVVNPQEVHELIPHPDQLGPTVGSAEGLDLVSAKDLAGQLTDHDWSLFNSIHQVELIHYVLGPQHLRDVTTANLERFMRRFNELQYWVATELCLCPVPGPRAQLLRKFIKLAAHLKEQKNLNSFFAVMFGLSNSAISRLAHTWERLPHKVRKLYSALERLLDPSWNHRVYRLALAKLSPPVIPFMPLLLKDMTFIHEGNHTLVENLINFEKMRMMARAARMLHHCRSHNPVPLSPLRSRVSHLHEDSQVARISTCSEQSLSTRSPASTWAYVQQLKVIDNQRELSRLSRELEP
Method in brief: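 Nucleotide exchange followed as fluorescence loss when BODIPY-GDP leaves Rap1B (480 nm excitation, 540 nm emission), read at 5 min intervals over 30 min. Reaction: 100 nM EPAC1, 250 nM RAP1B-BODIPY-GDP, 50 uM GDP; ATA and DMSO define normalization.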

Activity change, negative = inhibition, inactive:
CN(C)CCOC(c1ccccc1)c1ccccc1
CN1CCc2cccc3c2[C@@H]1Cc1ccc(O)c(O)c1-3 -7.21%
CC(O)C(=O)O (configuration not stated) 3.25%
N#Cc1cccc(NC(=O)N2CCCC3(CCN(C(=O)c4csnn4)CC3)C2)c1 21.1%
CCC1CN(CC(=O)N(C)Cc2nc3ccccc3[nH]2)Cc2cc(OC)ccc2O1 (configuration not stated) 12.9%
NC(=S)N/N=C/c1cccnc1 7.36%
Cc1c(C2CCN(CCc3ccccc3)CC2)noc1-c1ccc(Cl)cc1
COc1ccc2cc1Oc1ccc(cc1)CC1c3cc(c(OC)cc3CCN1C)Oc1c(OC)c(OC)cc3c1C(C2)N(C)CC3 (configuration not stated) -13.8%
CN1C2CCC1CC(OC(c1ccccc1)c1ccccc1)C2 (configuration not stated) 4.92% [at 75.8 µM]
Cc1cccc(C(=O)NCc2nc(-c3ccccc3NC(=O)C3CCCO3)oc2C)c1 (configuration not stated) 20.8%
Cc1cnc(-n2ncc(C(=O)N(C)CC3CCCN(C)C3)c2C2CC2)nc1-c1cccs1 (configuration not stated) -10.3%
CCC1CN(CC(=O)NC(C)CO)Cc2cc(OC)ccc2O1 (configuration not stated) 14.1%
NCCCCCCNS(=O)(=O)c1cccc2c(Cl)cccc12
Cc1cc2ccccc2c[n+]1C1CCCCC1 18.9%
CCC(C)(C)OC(=O)N[C@@H](Cc1c[nH]c2ccccc12)C(=O)N[C@@H](CCSC)C(=O)N[C@@H](CC(=O)O)C(=O)N[C@@H](Cc1ccccc1)C(N)=O 29%
CCCCN(CCC#N)c1ccc(/C=C/c2ccnc3ccccc23)cc1 16.2%
Nc1ncnc2c1ncn2[C@@H]1O[C@H](C(=O)NC2CC2)[C@@H](O)[C@H]1O 30%
COc1ccc(C(=O)N2CCC3(CCCN(C)C3)CC2)cc1 12.4%
COc1cc(C2Oc3cc(C4Oc5cc(O)cc(O)c5C(=O)C4O)ccc3OC2CO)ccc1O (configuration not stated) 21%
COc1ncc2nc(-c3cccs3)c(=O)n(-c3ccccc3)c2n1 -0.0001%
CC(C)CNC(=O)c1cn(C2CCN(Cc3nc4ccccc4s3)CC2)nn1 2.49%
CCCCCCCCCCCCCCCCCC(=O)NCC(COP(=O)([O-])OCC[N+](C)(C)C)OCC (configuration not stated) -4.6% [at 75.8 µM]
CCC(=O)O[C@@H]1CC(=O)O[C@H](C)C/C=C/C=C/[C@@H](O)[C@H](C)C[C@H](CC=O)[C@H](OC2O[C@H](C)[C@@H](O[C@H]3C[C@@](C)(O)[C@@H](OC(=O)CC)[C@H](C)O3)[C@H](N(C)C)[C@H]2O)[C@H]1OC (some centres not stated) 10.3% [at 39.6 µM]
COc1ccc(-n2c(=O)c(-c3cccs3)nc3cnc(N4CCOCC4)nc32)cc1 0.0203%
c1ccc2c(c1)CCCN2 9.21%
CCN(CC)CCOc1ccc(C(O)(Cc2ccc(Cl)cc2)c2ccc(C)cc2)cc1 (configuration not stated) 5.4%
COc1ccc(-c2coc3c(O)c(OC)ccc3c2=O)cc1 -4.78%
Cc1cnc(-n2ncc(C(=O)N(CCO)C(C)C)c2-c2cccs2)nc1-c1ccc(F)cc1 13%
COc1cccc(Cn2c(=O)c(-c3ccccc3)nc3cnc(N4CCNCC4)nc32)c1 27.3%
CCCN(CCC)S(=O)(=O)c1ccc(C(=O)O)cc1
CC1CC2C3CCC4=CC(=O)C=C[C@]4(C)[C@@]3(F)[C@@H](O)C[C@]2(C)[C@@]1(O)C(=O)CO (some centres not stated) -1.97% [at 75.8 µM]
Cn1cc(NC(=O)c2cc(NC(=O)c3cc(NC=O)cn3C)cn2C)cc1C(=O)NCCC(=N)N 11.1%
Cc1ccccc1-c1cc(N2CCN(C)CC2)ncn1 0.0883%
C=C[C@@H]1c2ccccc2N(S(=O)(=O)c2ccc(C)cc2)[C@H](c2ccccc2)C1(C#N)C#N 3.47%
CCN(CC)C(=O)c1cccc(C)c1 6.96%
O=C(c1cnccn1)N1CCC2(CC1)CN(C(c1ccccc1)c1ccccc1)C2 -3.2%
Cc1cc(Cl)ccc1OCC(=O)NCC1Cc2cc(-c3cnccn3)ccc2O1 (configuration not stated) 3.41%
CC(C)(C)NCC(O)COc1ccc(NC(=O)NC2CCCCC2)cc1 (configuration not stated) 4.92%
CCN(CC)C(=O)c1cccnc1 17.1%
c1cncc(-c2cncnc2-n2ccnc2)c1 25.6%
O=c1[nH]c(=S)[nH]c(-c2ccccc2)c1Cc1c(O)ccc2ccccc12 -0.122% [at 75.8 µM]
c1cncc(-c2cc(NCc3cccs3)ncn2)c1 3.25%
COc1cc(C)c(CN2CCc3nnc(C(C)NC(=O)c4cccnc4)n3CC2)cc1C (configuration not stated) -1.05%
C[C@]12CC[C@@H]3c4ccc(O)cc4CC[C@H]3[C@@H]1CC[C@@H]2O
Cc1noc(C)c1-c1cncnc1NCc1ccccc1 -1.08%
CCCC(CCC)C(N)=O 23.2%
COc1cc(=O)n2c(c1C(=O)N(C)Cc1nonc1C)CCN(Cc1ccccc1F)CC2 16.4%
CC(=O)N1CCC2(CCCN(C(=O)Nc3cccc(C#N)c3)C2)CC1 15.2%
COc1ccccc1-c1cncnc1NCCN1CCOCC1 25.5%
CC(=O)Oc1c(C)c(C)c2c(c1C)CC[C@@](C)(CCC[C@H](C)CCC[C@H](C)CCCC(C)C)O2
COc1ccccc1CCn1c(=O)c(CCc2ccccc2)nc2cncnc21 7.08%
COC(=O)[C@@H]1CCCN1C(=O)c1cnn(-c2nccc(-c3cc(C)sc3C)n2)c1C1CC1 0.942%
C[n+]1cc2c3c(ccc2c2ccc4cc5c(cc4c21)OCO5)OCO3
Cn1c(=O)c(-c2ccc(F)c(F)c2)nc2cncnc21 4.45%
CCc1cc(C(=O)NCc2c(C)ncc3c2CCN(C(=O)C2=CCCC2)C3)no1 16.1%
COc1ccc2c(c1)OCC(Cc1ccc(O)c(OC)c1)C2=O (configuration not stated) 26.8%
CN(C)C(=S)SC(=S)N(C)C 13.8%
COC(=O)[C@H](Cc1ccccc1)NS(=O)(=O)N[C@@H](Cc1ccccc1)C(=O)OC -11.1%
COC(=O)CC(NC1CCN(c2nc(C)c3cc4c(cc3n2)CCC4)CC1)C(=O)OC (configuration not stated) 31.8%
CCCCCCCCCCCCCCCCCC(=O)[O][Al] 17.1%
CC(=O)O[C@@H]1CC2CCC1(C)C2(C)C (some centres not stated) 17.1%
O=C(O)C[C@H]1c2ccccc2S(=O)(=O)N1C1CCCC1 -5.1%
Cc1cccc(-c2cc(=O)c3cc(C)ccc3o2)c1 -1.28%
O=c1cnc2cnc(N3CCOCC3)nc2n1Cc1ccc(F)cc1 21.5%
CC(C)CN1CC2(CCN(S(=O)(=O)c3ccccc3)CC2)C1 15.9%
CC(=O)NCC(=O)NCC1Cc2cc(C)cc(-c3ccccn3)c2O1 (configuration not stated) -9.15%
Cc1nn(-c2ccccc2)c(C)c1/C=N/N1CCN(Cc2ccccc2)CC1 -1.4% [at 75.8 µM]
